# Measurements from PubChem BioAssay AID686979 (National Center for Advancing Translational Sciences (NCATS), 2013).
# Several values for one entry are separate records, joined by “and”; a condition that tells them apart may be missing. Identical values can stand only once. Hit rate of the full screen: of about 420,000 compounds, about 50,000 (12%) were called active. The inconclusive results got no clear call from the source; some entries with a clear call stand among them for comparison. Calls follow the shape of the dose curve; as a rule, active = well fitted inhibition curve with a large enough effect; inconclusive = small, poorly fitted or top-dose-only effect; inactive = flat fitted curve, though single readings scatter. Potencies of inconclusive entries are doubtful fits and often do not repeat. A structure can be active in one record and inactive in another.
# Test: qHTS for Inhibitors of human tyrosyl-DNA phosphodiesterase 1 (TDP1): qHTS in cells in presence of CPT; also: nearly all actives have a fitted effect of over 55% in size
# Details: chicken DT40 Tdp1-/-;hTDP1 cells + 20 nM CPT, ATP luminescence, 48 h
# Summary of the method: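 Cell growth measured by CellTiter-Glo luminescence after a minimum 48 h, 37 C compound exposure with 20 nM CPT in Tdp1-knockout DT40 cells stably expressing hTDP1, seeded 400/well; qHTS titration format.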
# [1] = activity change, negative = growth inhibition: at 46.2 µM (top of the series) unless noted
# % is scaled to controls: 0 for no effect and ±100 for the full control effect; potency is read from the fitted curve at half-maximal effect; tags tell the direction and shape of the fitted curve.
compound,measurement,setting,value
C=CCn1c(SCC(=O)c2c(N)n(C)c(=O)n(C)c2=O)nnc1-c1ccoc1C,Potency,[1],inactive
CCn1c(Cc2ccccc2)nnc1SCC(=O)OC(C)C,Potency,[1],inactive
COC(=O)Cc1[nH]nc2c1C(c1cccc(OC)c1OC)C(C#N)=C(N)O2 (configuration not stated),Potency,[1],inactive
COC(=O)c1c(C)noc1-c1cc(C)on1,Potency,[1],inactive
C=CCNC(=S)N(C1CCCCC1)C1CCCCC1,Potency,[1],"inconclusive: 29.1 µM [inhibitor, single point]"
Cc1cc(F)ccc1NCc1cc2c(cc1[N+](=O)[O-])OCO2,Potency,[1],"inconclusive: 23.1 µM [inhibitor, partial curve, poor fit]"
COc1ccc(-n2c(=O)c3c4c(sc3n(Cc3cc(C)ccc3C)c2=O)CN(C(C)=O)CC4)c(OC)c1,Potency,[1],"inconclusive: 23.1 µM [inhibitor, single point]"
OC(COC(c1ccccc1)c1ccccc1)CN1CCc2ccccc2C1 (configuration not stated),Potency,[1],"inconclusive: 25.9 µM [inhibitor, single point]"
O=C(COC(=O)c1ncc(Cl)c(Cl)c1Cl)NCc1ccccc1,Potency,[1],inactive
COc1ccc(CNC(=O)CS(=O)(=O)Cc2nc(-c3cccc(OC)c3)oc2C)cc1,Potency,[1],"inconclusive: 32.6 µM [inhibitor, partial curve, poor fit]"
CN(C)S(=O)(=O)N1CCN(CC(O)COc2ccc(-c3ccccc3)cc2)CC1 (configuration not stated),Potency,[1],active: 20.6 µM
Cc1ccccc1-n1cc(-c2ccccc2)nc1SCC(=O)Nc1ccc(F)cc1,Potency,[1],"inconclusive: 29.1 µM [inhibitor, single point]"
Cc1ccccc1C1(CCN2CCCCC2)CCOC(C)(C)C1 (configuration not stated),Potency,[1],inactive
Cc1cccc(-c2noc(-c3cccnc3NCc3ccco3)n2)c1,Potency,[1],"inconclusive: 29.1 µM [inhibitor, single point]"
CC1=C(CC(=O)O)c2cc(F)ccc2/C1=C\c1ccc(S(C)=O)cc1 (configuration not stated),Potency,[1],active: 11.9 µM
O=C(Nc1cccc(NC(=O)c2ccc(Br)o2)c1)c1ccccc1,Potency,[1],"inactive and inconclusive: 4.61 µM [inhibitor, single point]"
COc1cccc(C2c3c(oc4ccc(C)cc4c3=O)C(=O)N2CCCN2CCOCC2)c1OC (configuration not stated),Potency,[1],"inconclusive: 18.4 µM [inhibitor, single point]"
COC(=O)C1=C(N)Oc2cc(C)n(Cc3ccco3)c(=O)c2C1c1cccc(Cl)c1 (configuration not stated),Potency,[1],inactive
CC(C)N1C(=O)S/C(=C\c2ccc(-c3ccc(Cl)c(C(=O)O)c3)o2)C1=O,"activity change, negative = growth inhibition",[1],inconclusive: -35% [inhibitor]
COc1ccc(/C=C/C(=O)NCCN2CCOCC2)cc1OC,Potency,[1],"inconclusive: 25.9 µM [inhibitor, single point]"
CC(=O)CC1(O)C(=O)N(Cc2ccccc2)c2ccccc21 (configuration not stated),Potency,[1],"inconclusive: 23.1 µM [inhibitor, single point]"
CCc1ccc2c(c1)NC(=O)C2(C)Cc1ccccc1C#N (configuration not stated),Potency,[1],"inconclusive: 29.1 µM [inhibitor, single point]"
CCOC(=O)c1ccccc1NC(=O)CN1CCC(n2nnc3cc(C(F)(F)F)ccc32)CC1,Potency,[1],inactive
CCCn1c2ccccc2c2cnn(CC(=O)N3CCC(C(=O)OCC)CC3)c(=O)c21,Potency,[1],"inconclusive: 20.6 µM [inhibitor, single point]"
CCOc1ccc(NC(=O)CCCCCN2C(=O)[C@@H]3Cc4ccccc4CN3C2=O)cc1,Potency,[1],"inconclusive: 29.1 µM [inhibitor, single point]"
CC(=O)Nc1ccc(SC[C@H](Cc2ccccc2)N2CCN(CCc3ccccc3)CCC2=O)cc1,Potency,[1],"inconclusive: 29.1 µM [inhibitor, single point]"
CN(Cc1nc(-c2ccc(Cl)cc2)no1)C(=O)c1ccco1,Potency,[1],inactive
COc1ccc(C2C(=O)N(C3CCC(C)CC3)CC(=O)N2Cc2ccccc2Cl)cc1OC (configuration not stated),Potency,[1],"inconclusive: 25.9 µM [inhibitor, single point]"
COc1ccc(OC)c(C2C(C#N)=C(N)Oc3cc(N)ccc32)c1 (configuration not stated),Potency,[1],"inconclusive: 8.2 µM [inhibitor, partial curve, poor fit]"
C/C(=N\Nc1cc(C)nc(-c2ccccc2O)n1)c1ccccc1,Potency,[1],"inconclusive: 5.17 µM [inhibitor, partial curve]"
CC(=O)c1ccc(NC(=O)C2CCCN(c3ncnc4c3nc3n4CCCCC3)C2)cc1 (configuration not stated),Potency,[1],"inconclusive: 18.4 µM [inhibitor, single point]"
CCOc1ccc(C(C)C)cc1S(=O)(=O)N1CCN(C(=O)c2ccco2)CC1,Potency,[1],inactive
C[C@H](CO)N1C[C@H](C)[C@@H](CN(C)S(=O)(=O)c2cn(C)cn2)Oc2c(NS(=O)(=O)c3ccccc3)cccc2C1=O,Potency,[1],inactive
CC(C)C[C@H]1CN=C(Nc2ccccc2)N1CCCC1CCCCC1,Potency,[1],"inconclusive: 18.4 µM [inhibitor, single point]"
N#Cc1c(N2CCOCC2)nc(N2CCCCC2)c2c1CCN(C1CCCCC1)C2,Potency,[1],"inconclusive: 29.1 µM [inhibitor, single point]"
CNC(=O)CSc1nc2ccccc2c(=O)n1-c1cc(OC)ccc1OC,Potency,[1],inactive
O=C(NCCN1CCN(c2ccccc2)CC1)Nc1ccccc1Br,"activity change, negative = growth inhibition",[1],inconclusive: -30% [inhibitor]
same,"activity change, negative = growth inhibition",at 46.2 µM (top of the series),inactive: -19.1%
Cc1ccc(Sc2c(C)nn(C(=O)COc3ccc(F)cc3)c2C)cc1,Potency,[1],inactive
C/C(N)=C(/C#N)C(=O)CSc1nc2ccccc2c(=O)n1Cc1ccc(F)cc1,Potency,[1],"inconclusive: 29.1 µM [inhibitor, single point]"
Cc1c(Cl)cccc1NC(=S)C(=C([O-])c1ccc(Cl)s1)[n+]1ccccc1,Potency,[1],inactive
Cc1ccc(NS(=O)(=O)c2cccc([N+](=O)[O-])c2)nc1,Potency,[1],inactive
COc1ccc(CC(=O)NC(C)c2nnc(SCC(=O)c3ccc(Br)cc3)n2C)cc1 (configuration not stated),Potency,[1],inactive
CC(C)(C)c1ccccc1OCC(O)CN1CCN(c2ccccn2)CC1 (configuration not stated),Potency,[1],active: 16.4 µM
Cc1ccc(C)n1-c1nn(S(=O)(=O)c2cccc3cccnc23)c2cccc(F)c12,Potency,[1],inactive
O=C(NNC(=S)NC(=O)c1ccc(Br)cc1)c1cccc([N+](=O)[O-])c1,Potency,[1],active: 18.4 µM
Cc1ccc2nc(-c3ccc(Cl)cc3)c(Cc3ccccc3C(F)(F)F)n2c1,Potency,[1],active: 25.9 µM
